From the RNAGym collection of RNA variant scans (doi:10.7554/elife.90254) come the findings set out here.

The source gives no read counts; variants with many changes may rest on few reads.

First the molecules themselves.
B1: LINE1-full (parent)
chain: UACGUAGGUGGUUUUCCCCUGAUAGUGCUAAGGGGGCCUGGAAGUUUGGACUGGGCAGAGCUCAACACAGCGUGGCAAAGUGGCUGUGGCUAGACUGCCUCUCUGGAUUCCUCGUCACUCAGCAGGGCAUCUCUGAGAGAAAUGCC

The variants in this data set derive from B1. As to the kind of experiment: self-cleavage, relative activity (ratio to wild type); higher = more cleavage; in vitro, sequencing; the parent is a self-cleaving ribozyme.
On to U5C C17A G27A U87A U109C U115C, for which the self-cleavage was 0.11. Under U5C U108C C116U stands 1.51.

As to U5C U45C A77G U85C, the self-cleavage came to 1.67. Under U5C A57U A69G stands 0.47.

As to A6U U14C A59G A64G A140G, the self-cleavage came out at 0.5. Under A6G U15C G106A stands 1.35. Under A6C G8C A78G stands 1.33; under U5C A140G U143A, 0.63; under A6G U46C U100A A124C, 1.97. Turning to A6U U119C U143A, the self-cleavage was 1.05.

As for A6G G33A U62A, the self-cleavage worked out at 0.11. In the case of A6G U81A G105A, the self-cleavage is 1.69.

Turning to U5C A31U A64U A67G A129G U143C, the self-cleavage turned out to be 0.38. Under A6G U46C A129G stands 1.63; under U5C A43G G127A, 0.81; under A6G U100C A117U A129G, 2.45.

For U5G A43G A78U G127A U132A, the self-cleavage worked out at 2.07. Under A6G U23C U96C U134C stands 0.71. U5C A121G G126C: the self-cleavage turned out to be 2.92. Under U5C A24G C37U stands 1.17; under A6U U14A U143C, 1.17. As for G7A A69G U104C A117G, the figure is 0; as for U5C U96A A121U, 0.4. Under G7A U12G U26C U87A stands 0.1; under U5C G32A A69U U104A U108C A124G, 0.19. For the variant U5C U14C U23C, the self-cleavage was determined as 1.21. As for U5C U100C U115C, the figure is 1.23; as for G7A U20A U134C, 0.8. As for A6G A24G A59G A78U U143A, the figure is 0.35; as for A6G A22G A107G, 2; as for U5C U52G U100C U102C, 2.04. For the variant U5C U15C U96C U143C, the self-cleavage turned out to be 0.38. Under U5C U62C U115C stands 0.55; under A6U U87C A129G, 0.45. Under A6G A79G U96A stands 0.13. As for U5C A57U A117G U143A, the figure is 0.

For the variant U5C A30G A57U, the self-cleavage stood at 0.37. Under A6U U15C G88C U104C stands 0.28. Turning to U5C U81A U119C, the self-cleavage came out at 1.72. Under A6G G53A U108C stands 1.04; under A6U U12C U15A A22U A77U, 1.24. As to U5C U12G U62C U73C, the self-cleavage was found to be 0. As for U5C A30G A69U A77G, the figure is 0. Under A6G U47C U104A stands 0.32.

As for U5C A31U U45A A77G, the self-cleavage turned out to be 0.8. Under A6G U13C U96C stands 0.77; under A6G A59G A121U, 0.24. In the case of U5C A129U U132A, the self-cleavage is 1.52. As for A6U C84G A124C G126A, the figure is 0.11; as for A6G C19U U23A A142G, 1.53; as for A6G U47A U143C, 0.7. Under U5C A136G G139A stands 1.35; under A6U A50C A59G U87C, 0; under A6U A43G U119C A140G, 1.91. As for A6C A57G A79G A138G, the figure is 0; as for A6G A69U U104C, 0.16.

As for G7A A117U C128U U143C, the self-cleavage turned out to be 1.15. As for U5C U14A U39C, the figure is 1.29; as for A6G G54U A129G, 0.73; as for A6G U14C U46C U102C U119A U143C, 0.84.

Take U5C U45C U81C: the self-cleavage came out at 1.15.

Regarding A6G A79U A140U, the self-cleavage amounted to 0.89. U5C A78U G86A U100A U115C: the self-cleavage is 0.

For U5C A43U U45G U143C, the self-cleavage turned out to be 0.

On to U5C U26A C84U, for which the self-cleavage is 0.3. Under A6G U14C U39G A67C stands 0; under U5C C98U A140U, 1.13.

Take U5C U9A U14C A43G C61U U134A: the self-cleavage came to 0.21. As for U5C C71A U87G U96C, the figure is 0.1; as for A6G A141G U143C, 0.6. In the case of A6C U85C G86C, the self-cleavage was 0.16. As for U5C U91C A138G, the figure is 1.19; as for A6C U12A A43G U62C U132C, 0. With A6G A43G U47C, the self-cleavage turned out to be 2.04. Under A6C U12A U23A U26C U130A A136G A142G stands 0; under A6G A42G U45A U62C U81A, 0.09; under U5C U20C A50G, 0.92.

In the case of A6G U39A U52C G54A U112C, the self-cleavage came to 0.57.

On to U5C A57G G74C C120U A140U, for which the self-cleavage stood at 0.81. As for A6C A59G A78U G125A, the figure is 0.2; as for A6U C111A C113U, 1.04; as for A6U U52C A57G A59G U119C A142G, 0. As for A6G A57C A69U, the figure is 0.09.

For U5C U100G C146A, the self-cleavage is 0.42. Under A6G U62C A129G stands 0.12; under U5C A30G A124U A141G, 0.88. In the case of G7A U12C A77G, the self-cleavage worked out at 1.24. As for A6G A69C U112C, the figure is 1.05; as for A6G C28U U85C U130C, 0.08; as for A6G G7U U15C G35A A65G, 0.12.

In the case of U5C U14C A78G G86A U91A, the self-cleavage was determined as 0.26. Take A6G U12C A22G U29A U119A: the self-cleavage was found to be 0.72. Under A6G A43U U81A G114A A136G stands 1.86; under A6U G36A G125U C131U G144A, 1.01. As for U5C A136G A142G, the figure is 1.28; as for G7A A69G G88A A92U A94U U104C A129U, 0.02; as for U5C U13C U85A, 0.04.

On to A6G U20G A30U A67C U73C, for which the self-cleavage was 0.92. Under A6G U9C G33U stands 1.21; under A6G U112C A124U A136G, 1.84; under A6U U20C U81A U112C G122C, 2.54. Under A6U U20A A69U U108C U109A stands 0.19; under U5C U14A A42G A117U, 0.68; under U5C U15C U39C, 1.02. As for U5C G27A A138U, the figure is 1.06. For A6G A22G U45A U96C U119C G126U A141G, the self-cleavage was determined as 0.26.

As to U5G A42G A79G, the self-cleavage was 1.31. Regarding A6C A67G G72U U73C, the self-cleavage amounted to 0.46. As for U5C U26A U46C C90A, the figure is 0.04.

Consider A6G G44A A64U U81C, for which the self-cleavage came to 0.54. As for U5C U73A A77G, the figure is 0.26; as for A6G U52A A107U G114U A141G, 1.25. As for U5C U96C U130A, the figure is 0.41.

For the variant A6U G33C U81A A107G A121G, the self-cleavage amounted to 2.16.

As to U5C U9C U14C U100C, the self-cleavage turned out to be 2.55. Under A6G U45A A59U stands 0.48; under A6U U15C U132G, 0.66. Take U5C A42G A69U: the self-cleavage is 0. As for A6G G75A A94G, the figure is 0.69; as for A6G G25A G83A, 0.41.

For A6U A43C U46A, the self-cleavage amounted to 0.74.

For the variant A6G U85A U102C A129G, the self-cleavage amounted to 0.59.

For the variant U5C U14C U109C C113A, the self-cleavage is 1.66.

With A6G A65G A124U, the self-cleavage stood at 0.34.

On to A6G U20C A42G U102A A124U A138G, for which the self-cleavage was 1.38. Under A6G A22U U73C stands 0.3; under U5C A78U U87A U108C A138U, 0.48. As for A6C U14C U112C, the figure is 0.66.

For the variant U5C U52A U132C, the self-cleavage was 0.65. Under G7A U12G U73A A78G stands 0.41; under U5C G35A C37G A141G, 0.9; under A6U U13C G35A U62C U91C A92U A124U, 0.23. In the case of U5C A43G C61U U62C G89U A138G, the self-cleavage came to 0.09. Under A6C G34A G75A U100C stands 1.29; under U5C G32A U46C, 0.7. As for U5C U87C G93U, the figure is 0.07. Under A6G A124G G139U stands 0.59; under A6U U39G U73C, 0.57. On to A6G A42G A67U U73C, for which the self-cleavage amounted to 0.54. Under A6G G35A A65G U73A U102C stands 0; under A6G G88A U104A, 0.06; under U5C U9A C19A U52A G80A, 0.53.

With U5C U12C U96A, the self-cleavage is 0.24. As to G7A C28G U130C, the self-cleavage was found to be 0.78. Under G7A A22U U45C U87C stands 0.2; under A6G A24G A50U A78C, 0.51; under A6G A22G U100C, 0.89. Under A6G U39C A121G stands 0. Under A6G A42G U73A stands 2.3; under A6G A42G U73C, 0.77; under A6G A79G A94U A107G, 0.84. Regarding A6U U46C A94C, the self-cleavage is 0.12. Turning to U5C A59G G72A, the self-cleavage is 0.2. As for A6G G60C A67U A79U A124G A129G, the self-cleavage is 0.16.

For the variant A6G A78U U115A, the self-cleavage is 1.67. As for A6U A77G G88A A124G A140G A141G, the figure is 0.1; as for A6U G60A U96A, 0.02; as for A6G C17U A136U, 1.2.

For the variant U5C U47A C61U, the self-cleavage is 0.04. As for U5C U23C G41A, the figure is 1.02; as for U5C A30G U85A, 0.16. As for U5C A79G A92U, the figure is 0.91; as for U5C U14C A43G A79G A142G, 0; as for A6G A129U A141G, 0. As for U5C U39A A79G, the figure is 0.89. Regarding A6G A43G U130C A140U, the self-cleavage stood at 1.53. As for U5C U13C U104G, the figure is 0.
